Assay results published in paper PMC4336329 (PLoS ONE, 2015).
Hit rate of the full screen: of about 310,000 compounds, about 14,000 (4.5%) showed an effect of 50% or more. Effects have a minus sign here. Some of the results follow.

Molecular target: human ether-à-go-go-related gene (hERG) potassium channel (human, UniProt Q12809)
Experiment: primary screen, population patch clamp on CHO cells stably expressing hERG
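Further: peak tail current of the secondary pulse compared with the same well before compound.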

Sequence of human ether-à-go-go-related gene (hERG) potassium channel (Q12809 whole entry, looked up): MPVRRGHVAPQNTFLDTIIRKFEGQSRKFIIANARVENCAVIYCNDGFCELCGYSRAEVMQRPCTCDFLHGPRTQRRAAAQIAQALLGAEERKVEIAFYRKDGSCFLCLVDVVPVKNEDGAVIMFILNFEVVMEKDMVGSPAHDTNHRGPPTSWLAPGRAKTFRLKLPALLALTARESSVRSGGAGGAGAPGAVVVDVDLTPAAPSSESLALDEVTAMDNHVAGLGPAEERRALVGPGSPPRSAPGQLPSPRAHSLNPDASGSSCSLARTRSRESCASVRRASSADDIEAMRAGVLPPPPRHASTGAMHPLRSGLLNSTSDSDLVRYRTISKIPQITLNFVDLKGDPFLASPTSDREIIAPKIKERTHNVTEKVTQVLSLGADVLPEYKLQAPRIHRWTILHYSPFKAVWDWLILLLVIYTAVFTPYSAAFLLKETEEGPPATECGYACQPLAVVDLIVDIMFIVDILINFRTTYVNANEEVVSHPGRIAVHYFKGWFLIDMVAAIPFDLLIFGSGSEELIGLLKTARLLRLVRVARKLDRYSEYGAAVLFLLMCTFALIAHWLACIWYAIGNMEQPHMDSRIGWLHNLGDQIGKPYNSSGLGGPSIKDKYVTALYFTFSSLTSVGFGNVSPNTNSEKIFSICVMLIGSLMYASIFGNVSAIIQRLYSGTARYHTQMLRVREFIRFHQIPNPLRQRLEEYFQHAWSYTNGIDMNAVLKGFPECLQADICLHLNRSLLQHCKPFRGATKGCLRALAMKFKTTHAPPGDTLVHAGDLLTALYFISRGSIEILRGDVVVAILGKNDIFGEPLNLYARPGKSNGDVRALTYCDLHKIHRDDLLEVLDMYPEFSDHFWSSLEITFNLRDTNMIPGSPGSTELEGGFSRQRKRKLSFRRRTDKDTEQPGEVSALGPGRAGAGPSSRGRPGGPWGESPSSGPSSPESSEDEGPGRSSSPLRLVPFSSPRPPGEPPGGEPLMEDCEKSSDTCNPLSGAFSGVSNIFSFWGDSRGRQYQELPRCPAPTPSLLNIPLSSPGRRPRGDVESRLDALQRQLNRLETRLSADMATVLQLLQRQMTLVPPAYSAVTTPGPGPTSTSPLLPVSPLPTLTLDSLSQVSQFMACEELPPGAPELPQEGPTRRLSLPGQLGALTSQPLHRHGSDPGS

Point of comparison: Cc1nc(-c2ccc(Cl)cc2)sc1C(=O)NNC(=O)C(C)C, “hERG current change (%, negative = inhibition) at 10uM” value 10.7%. Against it:
- Nc1ccc2oc(-c3cccc4ccccc34)nc2c1 — lower, 8.92%
- COC(=O)c1ccccc1NC(=O)CCCn1nc([N+](=O)[O-])cc1C — lower, 4.63%
- COC(=O)[C@@]1(Cc2ccc(F)cc2)[C@H]2c3cc(C(=O)N4CCCC4)n(Cc4ccc(C(F)(F)F)nc4)c3C[C@H]2CN1C(=O)c1ccccc1 — lower, -8.27%
- CC(C)(C)c1ccc(OCC(O)CN2CCN(c3ccccn3)CC2)cc1.Cl (stereo not shown) — lower, -16%
- COC(=O)c1sc(N)c(C(=O)OC)c1COC(=O)[C@@H](NS(=O)(=O)c1cccc(Cl)c1)C(C)C — lower, -5.24%
- CCOc1ccc(OCC)c(NC(=O)CN2CCN(c3cccc(C)c3C)CC2)c1.Cl — lower, 2.35%
- CC1CCN(C(=S)c2cn(Cc3cccc(F)c3)c3ccccc23)CC1 — higher, 19.2%
- CC(=O)N1N=C(c2ccncc2)OC1(Cc1ccccc1)Cc1ccccc1 — lower, -48.6%
- Cc1nc(C(=O)NNC(=O)c2ccc(Cl)cc2)cs1 — lower, -12.5%
- COc1ccc(CNC(=O)C(OC(=O)c2nsc(Cl)c2Cl)C(C)C)cc1 (stereo not shown) — lower, -10.6%
- CC(=O)c1ccc(NC(=O)CS(=O)(=O)c2cn(CC(=O)N3CCOCC3)c3ccccc23)cc1 — lower, -58.6%
- CN(C(=O)CN(c1ccccc1)S(=O)(=O)c1ccc(F)cc1)C1CCS(=O)(=O)C1 (stereo not shown) — lower, -13.2%
- CSc1ncccc1C(=O)Nc1ccc2c(c1)OCO2 — higher, 11.4%
- CCOn1c(SC(C)C)nc2ccccc2c1=O — lower, -5.49%
- CC(=O)C1=C(C)Nc2ncnn2C1c1ccc(Cl)cc1Cl (stereo not shown) — lower, 2.23%
- O=C1c2oc3ccc(F)cc3c(=O)c2C(c2ccc(F)cc2)N1CCCN1CCOCC1 (stereo not shown) — lower, -30.1%
- Cc1ccc(-c2nc(CS(=O)(=O)CC(=O)NCCN3CCOCC3)c(C)o2)cc1 — lower, 7.65%
- O=C(OCc1cc(=O)n2c(n1)sc1ccccc12)c1cccc(O)c1 — lower, 9.1%
- O=C(NCCn1cc(SCc2ccc(F)cc2)c2ccccc21)c1ccccc1F — lower, -1.34%
- O=C(COC(=O)c1cc([N+](=O)[O-])ccc1N1CCOCC1)Nc1cc(F)ccc1F — lower, -49.8%
- CCOC(=O)C1CCN(C(=O)c2cc(S(=O)(=O)N3CCCCC3)ccc2C)CC1 — lower, -7.08%
- Cc1nc2ccccc2n1-c1nc(-c2ccco2)cc(C(F)(F)F)n1 — lower, 5.46%
- C=C(C)COc1ccc(-c2ncncc2-c2ccc(Cl)cc2)c(O)c1 — higher, 13.9%
- O=C(Nc1ccc(Cl)c(Cl)c1)N1CCSC1c1ccco1 (stereo not shown) — lower, -5.48%
- CN(C)CCNC(=O)CNC(=S)N(CCCN1CCOCC1)Cc1cccs1 — higher, 12.1%
- Cc1[nH]n(-c2ccccc2)c(=O)c1/C=N/O — lower, -6.11%
- CCNC(=O)c1c(O)c2ccccc2[nH]c1=O — lower, -62.5%
- COc1cc(NCCCCCCCN)c2ncccc2c1.O=C(O)CCC(=O)O — lower, 8.46%
- Cc1ccc(S(=O)(=O)c2nc(-c3ccccc3)oc2N2CCCC2)cc1 — higher, 16.4%
- COc1cccc(C(=O)NNC(=O)C(=O)Nc2ccc(C)c(Cl)c2)c1 — higher, 13.7%
- CCC/C(O)=C1\C(=O)CCCC1=NCCc1c(C)[nH]c2ccc(OC)cc12 — higher, 13.1%
- COc1ccc(C2C(C(=O)c3cccs3)=C(O)C(=O)N2c2cccc(C)n2)cc1 (stereo not shown) — lower, -3.18%
- CC/C(O)=C1\C(=O)CC(c2ccccc2)CC1=NCCc1c(C)[nH]c2ccc(C)cc12 (stereo not shown) — lower, -0.144%
- COc1cc(C(=O)NCC2CCCO2)ccc1OCc1ccccc1Cl (stereo not shown) — lower, -30.7%
- CC12CCC(C(=O)Nc3nc4ccc(Br)cc4s3)(OC1=O)C2(C)C (stereo not shown) — lower, -2.78%
- CC1(O)CC(=O)N(c2ccccc2)O1 (stereo not shown) — lower, -1.7%
- CCOc1cc(CNc2ccc(N3CCN(C(C)=O)CC3)cc2)cc(Br)c1OC — lower, -5.28%
- Clc1ccc(-c2cn3nc4c(nc3n2)CCCC4)cc1 — lower, -15.3%
- CC1CC(C)CN(Cc2nc(N)nc(Nc3ccc4ccccc4c3)n2)C1 (stereo not shown) — lower, -79%
- COC(=O)c1ccc(=O)n(CC(=O)c2ccc(Cl)cc2)c1 — lower, -6.81%
- CCC1CC(CSc2ncn[nH]2)OC1=O (stereo not shown) — lower, 6.84%
- CC(=O)Nc1ccc(S(=O)(=O)Nc2ccc(Nc3ccccc3)cc2)cc1 — higher, 17.1%
- O=C1CC(N2CCN(c3ccc(F)cc3)CC2)C(=O)N1c1ccc2c(c1)OCO2 (stereo not shown) — lower, 6.71%
- CCOC(=O)Cc1csc(NC(=O)/C=C/c2cccc(Br)c2)n1 — lower, 6.18%
- Cn1c(SCc2ccc(Br)cc2)nc2ccccc2c1=O — higher, 12.3%
- CCOc1ccccc1NS(=O)(=O)c1cn(C)nc1C — lower, 6.71%
- COc1c2c(cc3c1C(CC(O)Cc1ccccc1)N(C)CC3)OCO2 (stereo not shown) — lower, -61.3%
- O=C(Nc1cc([N+](=O)[O-])ccc1F)c1cccs1 — lower, 1.86%
- COC(=O)[C@@H]1C[C@@]2(O)[C@@H](O)[C@@H](O)[C@@H](O)C[C@H]2N1CC1CCCCC1 — higher, 20.3%
- CCN(CC)S(=O)(=O)c1ccc2nc(CSc3nnnn3-c3ccc(O)cc3)[nH]c2c1 — lower, -53.9%
- CN(Cc1ccccc1)C(=O)c1cc(S(=O)(=O)N2CCOCC2)cn1C — lower, -7.13%
- CN(C)c1ccc(/C=C(\Cl)c2nc3ccccc3s2)cc1 — lower, -6.87%
- COc1ccc(/C=C/C(=O)OCc2cc(=O)n3c(n2)sc2ccccc23)cc1 — lower, -16.8%
- O=C(OCC(=O)N1CCCC1)c1cc(Cl)ccc1[N+](=O)[O-] — lower, 5.83%
